Holding throughout (assay): co-IP
Assay [1] addresses T1, HA-tagged full-length EDC4 (residues 1-1401) (UniProt Q6P2E9).
T1 sequence: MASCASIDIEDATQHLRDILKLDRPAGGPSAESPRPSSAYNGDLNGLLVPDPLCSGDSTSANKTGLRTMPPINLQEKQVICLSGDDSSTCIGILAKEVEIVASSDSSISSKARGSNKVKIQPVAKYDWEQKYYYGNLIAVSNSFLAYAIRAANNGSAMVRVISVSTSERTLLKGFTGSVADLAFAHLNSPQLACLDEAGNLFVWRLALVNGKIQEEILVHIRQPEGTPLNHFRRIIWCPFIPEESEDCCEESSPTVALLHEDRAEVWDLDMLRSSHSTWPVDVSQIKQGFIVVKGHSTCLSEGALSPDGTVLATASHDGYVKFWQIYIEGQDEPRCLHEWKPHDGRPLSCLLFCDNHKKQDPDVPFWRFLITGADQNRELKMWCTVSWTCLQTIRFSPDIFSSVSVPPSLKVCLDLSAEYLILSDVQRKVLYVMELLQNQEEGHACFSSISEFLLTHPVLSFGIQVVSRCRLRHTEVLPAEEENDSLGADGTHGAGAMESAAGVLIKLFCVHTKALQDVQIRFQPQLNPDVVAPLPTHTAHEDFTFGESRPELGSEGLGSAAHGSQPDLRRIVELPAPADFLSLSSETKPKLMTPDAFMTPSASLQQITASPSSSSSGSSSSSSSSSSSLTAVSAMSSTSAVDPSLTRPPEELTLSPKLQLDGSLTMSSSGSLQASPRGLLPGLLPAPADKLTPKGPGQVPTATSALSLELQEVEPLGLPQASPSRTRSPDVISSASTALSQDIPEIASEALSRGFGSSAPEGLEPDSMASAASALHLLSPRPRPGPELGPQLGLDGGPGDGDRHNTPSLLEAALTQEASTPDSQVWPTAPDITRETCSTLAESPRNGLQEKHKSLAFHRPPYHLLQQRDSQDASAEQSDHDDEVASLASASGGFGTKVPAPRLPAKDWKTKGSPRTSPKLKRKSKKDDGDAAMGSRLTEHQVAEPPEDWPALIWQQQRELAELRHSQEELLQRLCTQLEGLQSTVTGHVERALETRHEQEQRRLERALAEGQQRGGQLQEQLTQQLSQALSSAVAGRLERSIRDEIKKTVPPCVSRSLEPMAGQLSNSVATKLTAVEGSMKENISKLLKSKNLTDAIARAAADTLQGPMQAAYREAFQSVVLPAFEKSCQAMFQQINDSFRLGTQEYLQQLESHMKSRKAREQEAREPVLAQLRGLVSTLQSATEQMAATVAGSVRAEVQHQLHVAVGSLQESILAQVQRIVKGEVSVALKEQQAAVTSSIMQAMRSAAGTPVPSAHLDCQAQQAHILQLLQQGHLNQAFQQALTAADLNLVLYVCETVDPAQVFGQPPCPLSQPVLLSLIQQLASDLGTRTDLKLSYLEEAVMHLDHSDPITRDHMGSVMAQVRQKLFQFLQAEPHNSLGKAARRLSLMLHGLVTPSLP

Sequences of proteins named here, by UniProt entry; tags and fusion partners are left off.
UniProt Q05127: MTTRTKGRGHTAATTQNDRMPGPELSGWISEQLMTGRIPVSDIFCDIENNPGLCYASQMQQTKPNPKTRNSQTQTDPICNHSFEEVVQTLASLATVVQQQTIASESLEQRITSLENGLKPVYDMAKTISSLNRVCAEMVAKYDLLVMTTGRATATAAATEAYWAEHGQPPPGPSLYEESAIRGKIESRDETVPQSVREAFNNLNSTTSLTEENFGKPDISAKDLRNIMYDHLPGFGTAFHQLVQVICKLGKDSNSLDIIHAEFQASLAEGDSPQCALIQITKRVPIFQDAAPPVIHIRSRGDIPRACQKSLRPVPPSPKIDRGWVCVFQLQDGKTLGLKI

The target in another assay is T2, HA-tagged DCP1A (UniProt Q9NPI6).
T2 sequence: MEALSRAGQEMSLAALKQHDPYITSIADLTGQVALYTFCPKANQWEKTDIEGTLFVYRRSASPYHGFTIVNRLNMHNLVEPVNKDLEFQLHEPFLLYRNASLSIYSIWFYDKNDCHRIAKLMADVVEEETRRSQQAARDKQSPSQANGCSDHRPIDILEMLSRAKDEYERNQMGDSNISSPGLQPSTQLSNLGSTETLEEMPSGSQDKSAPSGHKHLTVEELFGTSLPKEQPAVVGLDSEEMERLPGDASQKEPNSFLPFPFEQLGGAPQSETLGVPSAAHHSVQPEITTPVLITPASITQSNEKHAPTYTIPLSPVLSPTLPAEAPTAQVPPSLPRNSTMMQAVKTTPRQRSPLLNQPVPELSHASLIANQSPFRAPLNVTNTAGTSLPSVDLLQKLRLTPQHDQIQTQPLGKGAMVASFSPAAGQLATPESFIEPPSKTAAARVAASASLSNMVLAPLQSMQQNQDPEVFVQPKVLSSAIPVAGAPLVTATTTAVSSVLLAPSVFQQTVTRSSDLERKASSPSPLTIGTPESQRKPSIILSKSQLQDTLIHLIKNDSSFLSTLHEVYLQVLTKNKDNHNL

Another assay addresses T3, HA-tagged EDC3 (UniProt Q96F86).
T3 sequence: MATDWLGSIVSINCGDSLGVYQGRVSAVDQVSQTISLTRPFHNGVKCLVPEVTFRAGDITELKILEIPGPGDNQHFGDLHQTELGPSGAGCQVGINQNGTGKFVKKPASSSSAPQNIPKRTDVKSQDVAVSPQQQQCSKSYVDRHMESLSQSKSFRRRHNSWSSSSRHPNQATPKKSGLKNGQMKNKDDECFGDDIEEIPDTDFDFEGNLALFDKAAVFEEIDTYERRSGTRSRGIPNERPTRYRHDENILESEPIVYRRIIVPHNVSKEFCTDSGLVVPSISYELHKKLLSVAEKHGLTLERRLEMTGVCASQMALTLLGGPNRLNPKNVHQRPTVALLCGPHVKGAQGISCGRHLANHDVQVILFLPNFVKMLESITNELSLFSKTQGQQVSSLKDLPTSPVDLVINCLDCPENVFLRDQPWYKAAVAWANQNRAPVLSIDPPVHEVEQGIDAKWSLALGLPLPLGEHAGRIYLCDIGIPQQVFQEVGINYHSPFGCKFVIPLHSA

For another assay, the target named is T4, HA-tagged DCP1B (UniProt Q8IZD4).
T4 sequence: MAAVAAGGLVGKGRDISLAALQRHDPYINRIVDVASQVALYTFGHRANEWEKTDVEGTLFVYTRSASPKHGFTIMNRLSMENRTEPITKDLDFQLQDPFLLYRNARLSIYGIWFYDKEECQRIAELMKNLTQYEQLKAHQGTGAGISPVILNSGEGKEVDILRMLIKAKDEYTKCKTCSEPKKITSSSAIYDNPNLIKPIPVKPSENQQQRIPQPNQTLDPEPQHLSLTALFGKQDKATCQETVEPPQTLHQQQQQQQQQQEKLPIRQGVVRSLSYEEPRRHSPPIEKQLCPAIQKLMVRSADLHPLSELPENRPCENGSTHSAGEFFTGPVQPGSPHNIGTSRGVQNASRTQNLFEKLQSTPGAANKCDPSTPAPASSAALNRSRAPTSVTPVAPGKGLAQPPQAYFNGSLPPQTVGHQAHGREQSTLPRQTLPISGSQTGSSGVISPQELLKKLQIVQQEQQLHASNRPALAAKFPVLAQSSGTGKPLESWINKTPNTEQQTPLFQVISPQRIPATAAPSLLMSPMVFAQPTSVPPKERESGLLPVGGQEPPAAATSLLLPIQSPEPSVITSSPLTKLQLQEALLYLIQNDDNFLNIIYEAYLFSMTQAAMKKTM

Assay [2] concerns the target HA-tagged EDC4 flexible linker and C-terminal alpha-helical domain (residues 538-1401) (UniProt Q6P2E9).
In a further assay the target is HA-tagged DCP2 (UniProt Q8IU60).
The target of assay [3] is FLAG-tagged VP35 (Ebola virus (EBOV)) (UniProt Q05127).

Results are given in words; binding and its absence hold for the method and conditions named. Binding seen in cells or lysates may run through a third protein. Some results given as binding are weak or reduced against the parent protein; the word gives no strength. For some of these results: Where a sequence is shown, tags or fusion partners need not be part of it.

For the molecule “FLAG-tagged VP35 (from UniProt Q05127 1-340)”, the binding result was “binds” in assay [1]; “no binding” in the assay with HA-tagged DCP1A; “no binding” with HA-tagged EDC3; “no binding” in the assay with HA-tagged DCP1B; “binds” in assay [2]; “no binding” with HA-tagged DCP2.

B1: HA-tagged full-length EDC4 (residues 1-1401) (protein, UniProt Q6P2E9 1-1401)
chain: T1 sequence
As for B1, the binding entry in assay [3] was “binds”.

For the origin of these results see paper PMC12475165 (Nature Communications, 2025).
